From patent US4226883A, “Carbamate derivatives and method for manufacture thereof” (priority 1974, dated 1980)
At least one structure is not confirmed: it was looked up by name or label, or the drawing left a doubt.

Tests used:
[1] = target: cholinesterase (ChE), susceptible strain; assay: Inhibition of cholinesterase (acetylthiocholine method), susceptible strain enzyme; type: biochemical, green rice leafhopper, Nephotettix cincticeps; conditions: 50% inhibition concentration, 30° C. 30 min with inhibitor, read-out: Inhibition of Cholinesterase I50 (M) S
Method: The activity of ChE was performed by the acethyethiocholine method [Ellman (1961), Biochemical Pharmacology 7: 88-95].
[…]. After centrifuged (30,000 g, 10 min.), the supernatant was used as the source of ChE.
(§1) (2) Inhibition: 1.0 ml of enzyme solution was incubated with 0.1 ml of inhibitor which diluted with acetone at 30° C. for 30 min. ((2) solution).
(3) Determination of ChE activity: 1.0 ml of acetylthiochline (3.5/2×10^-2 M), 1.0 ml of DTNB (5,5'-dithiobis-2-nitrobenzoic acid, 2.5×10^-4 M) and 4.0 ml of phosphate buffer (1/15 M, pH 7.4) were added to the (2) solution and incubated at 30° C. for 10 min. After incubation, […] of eserine (2×10^-3 M) was added in order to stop the enzyme reaction and the optical density of the yellow solution was measured at 412 mμ on the spectrophotometer.

[2] = test system: cholinesterase (ChE), resistant strain; type: biochemical, green rice leafhopper, Nephotettix cincticeps; conditions: for Inhibition of Cholinesterase R/S (resistant ratio): ratio of the resistant strain to the susceptible strain (I50), 30 min; for IC50: resistant strain, 50% inhibition concentration, 30° C. 30 min with inhibitor, read-out: Inhibition of Cholinesterase I50 (M) R
Method: After centrifuged (30,000 g, 10 min.), the supernatant was used as the source of ChE.
as §1
(3) Determination of ChE activity: 1.0 ml of acetylthiochline (3.5/2×10^-2 M), 1.0 ml of DTNB (5,5'-dithiobis-2-nitrobenzoic acid, 2.5×10^-4 M) and 4.0 ml of phosphate buffer (1/15 M, pH 7.4) were added to the (2) solution and incubated at 30° C. for 10 min.

SMILES	IC50 [1] [M]	Inhibition of Cholinesterase R/S (resistant ratio) [2]	IC50 [2] [M]
CCCNC(=O)Oc1cccc(C(C)(C)C)c1 [Compound 33, 3-tert-butylphenyl-N-n-propylcarbamate]	2.2e-05	0.2	5.1e-06
CCCNC(=O)Oc1cc(C)cc(C)c1C [Compound 58, 2,3,5-trimethylphenyl-N-n-propylcarbamate]	0.0001	0.2	1.5e-05
CNC(=O)Oc1cccc(C(C)C)c1 [Compound 11, 3-isopropylphenyl-N-methylcarbamate, reference compound]	5.4e-07	–	5.8e-06
CNC(=O)Oc1ccc(C)c(C)c1 [Compound 35, 3,4-dimethylphenyl-N-methylcarbamate, reference compound]	2.8e-06	22.9	6.4e-05
C=CCNC(=O)Oc1ccccc1C(C)CC (centres unmarked) [Compound 10, 2-sec-butylphenyl-N-allylcarbamate]	1.7e-05	1.1	1.9e-05
CCNC(=O)Oc1cc(C)cc(C(C)C)c1 [Compound 46, 3-methyl-5-isopropylphenyl-N-ethylcarbamate]	4.6e-05	0.5	2.3e-05
CCCNC(=O)Oc1ccc(SC)c(C)c1 [Compound 136, 3-methyl-4-methylthiophenyl-N-n-propylcarbamate]	0.00029	0.09	2.6e-05
C=CCNC(=O)Oc1ccccc1C(C)C [Compound 5, 2-isopropylphenyl-N-allylcarbamate]	2.6e-05	0.8	2.2e-05
CCNC(=O)Oc1cccc(C)c1 [Compound 25, 3-methylphenyl-N-ethylcarbamate]	0.00034	0.5	0.00018
CCCNC(=O)Oc1cc(C)c(C)c(C)c1 [Compound 64, 3,4,5-trimethylphenyl-N-n-propylcarbamate]	2.9e-05	0.2	4.4e-06
CCCNC(=O)Oc1ccc(CC)c(CC)c1 [Compound 51, 3,4-diethylphenyl-N-n-propylcarbamate]	4.2e-05	0.3	1.1e-05
CCCNC(=O)Oc1cccc(OCC)c1 [Compound 94, 3-ethoxyphenyl-N-n-propylcarbamate]	–	0.2	0.00019
CCCNC(=O)Oc1ccccc1OCC [Compound 80, 2-ethoxyphenyl-N-n-propylcarbamate]	> 0.001	< 0.2	0.00024
C=CCNC(=O)Oc1ccccc1OC(C)C [Compound 85, 2-isopropoxyphenyl-N-allylcarbamate]	0.00011	0.8	8.6e-05
C=CCNC(=O)Oc1ccc(C)c(C)c1 [Compound 39, 3,4-dimethylphenyl-N-allylcarbamate]	5.7e-05	0.3	1.6e-05
CCCNC(=O)Oc1ccccc1N(C)C [Compound 107, 2-dimethylaminophenyl-N-n-propylcarbamate]	0.00039	0.02	8.9e-05
CNC(=O)Oc1cc(C)cc(C(C)C)c1 [Compound 45, 3-methyl-5-isopropylphenyl-N-methylcarbamate, reference compound]	1.2e-06	11.6	1.4e-05
CNC(=O)Oc1ccccc1C(C)C [Compound 1, 2-isopropylphenyl-N-methylcarbamate, reference compound]	1.3e-06	92.3	0.00012
CCC(C)c1cccc(OC(=O)NC)c1 (centres unmarked) [Compound 15, 3-sec-butylphenyl-N-methylcarbamate, reference compound]	9.8e-08	54.3	4.3e-06
CCCNC(=O)Oc1cccc(C)c1 [Compound 26, 3-methylphenyl-N-n-propylcarbamate]	0.00029	0.2	4.8e-05
CCCNC(=O)Oc1ccccc1OC [Compound 77, 2-methoxyphenyl-N-n-propylcarbamate]	0.00045	0.5	0.00024

SMILES	IC50 [1] [M]	Inhibition of Cholinesterase R/S (resistant ratio) [2]	IC50 [2] [M]
CNC(=O)Oc1cc(C)cc(C)c1C [Compound 57, 2,3,5-trimethylphenyl-N-methylcarbamate, reference compound]	2.3e-06	31.7	7.3e-05
C#CCOc1ccccc1OC(=O)NCCC [Compound 91, 2-propynyloxyphenyl-N-n-propylcarbamate]	0.00042	0.2	6.3e-05
CCCC(C)c1cccc(OC(=O)NC)c1 (centres unmarked) [Compound 19, 3-sec-amylphenyl-N-methylcarbamate, reference compound]	5.7e-08	–	1.4e-06
CCCNC(=O)Oc1cccc(CC)c1 [Compound 31, 3-ethylphenyl-N-n-propylcarbamate]	0.00015	0.3	3.9e-05
CCCCNC(=O)Oc1ccccc1C(C)C [Compound 4, 2-isopropylphenyl-N-n-butylcarbamate]	> 0.001	< 0.09	8.6e-05
CNC(=O)Oc1cccc(C)c1 [Compound 24, 3-methylphenyl-N-methylcarbamate, reference compound]	6.5e-06	20.0	0.00013
C#CCOc1cccc(OC(=O)NCCC)c1 [Compound 101, 3-propynyloxyphenyl-N-n-propylcarbamate]	0.00083	0.3	0.00022
CNC(=O)Oc1cc(C)c(C)c(C)c1 [Compound 63, 3,4,5-trimethylphenyl-N-methylcarbamate, reference compound]	1e-06	–	1.5e-05
C=CCOc1cccc(OC(=O)NCCC)c1 [Compound 99, 3-allyloxyphenyl-N-n-propylcarbamate]	0.00018	0.07	1.2e-05
C=CCNC(=O)Oc1cc(C)cc(C)c1 [Compound 44, 3,5-dimethylphenyl-N-allylcarbamate]	5.7e-05	0.4	2.2e-05
CCNC(=O)Oc1ccc(C)c(C)c1 [Compound 36, 3,4-dimethylphenyl-N-ethylcarbamate]	0.00014	0.5	7.6e-05
CCCNC(=O)Oc1ccccc1C(C)C [Compound 3, 2-isopropylphenyl-N-n-propylcarbamate]	0.00013	0.4	4.7e-05
CCCNC(=O)Oc1ccccc1C(C)CC (centres unmarked) [Compound 8, 2-sec-butylphenyl-N-n-propylcarbamate]	0.00012	0.8	3.3e-05
CCCNC(=O)Oc1cc(C)c(C)cc1C [Compound 60, 2,4,5-trimethylphenyl-N-n-propylcarbamate]	0.00015	0.2	2.5e-05
C=CCNC(=O)Oc1ccc(SC)c(C)c1 [Compound 137, 3-methyl-4-methylthiophenyl-N-allylcarbamate]	9.8e-05	0.3	2.5e-05
CCCNC(=O)Oc1ccccc1NC(C)C [Compound 111, 2-isopropylaminophenyl-N-n-propylcarbamate]	3.8e-05	0.7	2.7e-05
CCCNC(=O)Oc1cccc(C(C)C)c1 [Compound 13, 3-isopropylphenyl-N-n-propylcarbamate]	3.3e-05	0.1	4.7e-06
CCNC(=O)Oc1ccccc1C(C)CC (centres unmarked) [Compound 7, 2-sec-butylphenyl-N-ethylcarbamate]	2.5e-05	1.8	4.4e-05
CCCNC(=O)Oc1cccc(C(C)CCC)c1 (centres unmarked) [Compound 21, 3-sec-amylphenyl-N-n-propylcarbamate]	7.2e-06	0.2	1.1e-06
CCCNC(=O)Oc1cc(C)cc(C)c1 [Compound 42, 3,5-dimethylphenyl-N-n-propylcarbamate]	0.00022	0.05	1.2e-05
CCCNC(=O)Oc1cccc(C(C)CC)c1 (centres unmarked) [Compound 17, 3-sec-butylphenyl-N-n-propylcarbamate]	1.3e-05	0.2	3.2e-06
